Measurements from PubChem BioAssay AID485344 (National Center for Advancing Translational Sciences (NCATS), 2010).
Values joined by “and” are separate entries in the source; they are usually repeats but may differ in a detail not shown here. Identical values can stand only once. About 6,900 (2%) of roughly 340,000 compounds were called active. Rule as the data show it: active = inhibition above about 30%; inactive = below that, where a call was filed. This is a selection; strong and weak results do not stand in their true shares. Entries without a call were filed so in the source.

What follows are compounds tested against D(2) dopamine receptor (Homo sapiens) (UniProt P14416) (assay: HTS Assay for Allosteric Antagonists of the Human D2 Dopamine Receptor: Primary Screen for Antagonists). Conditions: HEK293 TREx D2 cells, calcium flux, dopamine EC80; at 10 µM; stronger effect = higher value.
Outline: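 Overnight-induced (tetracycline, 30 C) HEK293 T-REx cells carrying force-coupled D2 receive a no-wash calcium dye, then compound, then EC80 dopamine at 180 s; signals are read kinetically throughout.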
Also: 0% is about no effect.

UniProt P14416, sequence (P14416 whole entry, looked up): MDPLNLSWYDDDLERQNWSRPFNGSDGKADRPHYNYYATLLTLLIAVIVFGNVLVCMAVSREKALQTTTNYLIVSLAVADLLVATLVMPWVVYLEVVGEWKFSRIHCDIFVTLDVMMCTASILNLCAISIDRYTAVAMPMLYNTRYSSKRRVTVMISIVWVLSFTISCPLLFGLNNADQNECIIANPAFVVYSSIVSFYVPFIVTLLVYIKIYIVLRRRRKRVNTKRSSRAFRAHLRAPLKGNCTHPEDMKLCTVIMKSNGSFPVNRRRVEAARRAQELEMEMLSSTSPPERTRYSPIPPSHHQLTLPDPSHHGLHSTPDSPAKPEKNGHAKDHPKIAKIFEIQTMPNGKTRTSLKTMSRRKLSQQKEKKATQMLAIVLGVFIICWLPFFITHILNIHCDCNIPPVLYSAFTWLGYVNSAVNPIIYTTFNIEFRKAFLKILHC

Row | Structure (SMILES) | inhibition
1 | CC(=O)c1cc(-c2ccccc2)n(CCC(=O)NC(C)c2ccccc2)c1C (stereo unspecified) | -19.3%
2 | CCCC(=O)n1nc(-c2cccnc2)nc1NCc1ccc(OC)cc1 | -5.55%
3 | O=C(CNC(=O)C(c1ccccc1)c1ccccc1)N/N=C\c1ccc2c(c1)OCO2 | active: 34.6%
4 | COc1cc(CN2CCc3nc(N4CCN(c5ccccn5)CC4)ncc3C2)cc(OC)c1OC | 6.9%
5 | O=C(Nc1ccc(Cl)cc1C(F)(F)F)c1cc(S(=O)(=O)N2CCOCC2)ccc1F | 23.1%
6 | Cc1cccc(C(=O)Nc2ccc(S(=O)(=O)N3CCC(c4nc5ccccc5s4)CC3)cc2)c1 | 21%
7 | CC(=O)c1c(C)c[nH]c1C | active: 31.1%
8 | COCCCNC(=O)c1cc2cc(S(=O)(=O)N3CCCCC3)ccc2n1C | -15.4%
9 | Cc1cc(C)c(NC(=O)CSc2ncc3c(n2)-c2cc(Cl)ccc2N(C)S3(=O)=O)c(C)c1 | -7.16%
10 | C=Cc1ccc(Cn2c(C(=O)O)c(CNCc3ccc(F)cc3)c3ccc(C)cc32)cc1 | 4.49%
11 | CCC(C)(C)NC(=O)C1CCN(S(=O)(=O)c2ccc3c(c2)CCCN3C(C)=O)CC1 | -2.37%
12 | CCN(CC)S(=O)(=O)c1ccc2c(c1)N(CC(=O)Nc1ccccc1F)C(=O)C1CCCN21 (stereo unspecified) | -11.5%
13 | CCCNC(=O)Cn1c(=O)n(CC2CCC(C(=O)NC)CC2)c(=O)c2sccc21 (stereo unspecified) | 5.39%
14 | CC(C)(C)c1ccc(/C=C/C(=O)Nc2ccc(S(N)(=O)=O)cc2)cc1 | 14.7%
15 | O=C1CS(=O)(=O)C2(C(=O)N(Cc3ccccc3Cl)c3ccccc32)N1c1ccc(F)cc1 (stereo unspecified) | 9.31%
16 | COc1ccc(Cn2c(C(=O)O)c(CNCCc3ccco3)c3ccc(OC)cc32)cc1 | 4.96%
17 | Cc1ccc(NC(=O)/C(C#N)=C/c2ccc(-c3ccc(Cl)c(C(=O)O)c3)o2)cc1C | -8.52%
18 | CCOc1ccc(CCNC(=O)c2cc3cccc4c3n2CCS4)cc1 | 6.93%
19 | COc1cccc(NC(=O)C2CCCN(S(=O)(=O)c3cn(C(C)C)cn3)C2)c1 (stereo unspecified) | -11%
20 | COC(=O)c1c(-c2ccc(Cl)cc2)noc1N1CCN(c2cc(C)ccc2C)CC1 | -13.7%
21 | COc1ccc(N2CCN(c3ncnc4c3cnn4C)CC2)cc1 | 9.25%
22 | CCCC(=O)N(c1ccc2oc(C)c(C(C)=O)c2c1)S(=O)(=O)c1ccc(CC)cc1 | -5.69%
23 | Brc1cccc(-c2nnn3c2nc(NCc2ccc4c(c2)OCO4)c2ccccc23)c1 | 13.5%
24 | O=C(NCC(c1cccnc1)N1CCc2ccccc21)c1cccc(Br)c1 (stereo unspecified) | -7.17%

Row | Structure (SMILES) | inhibition
25 | CC(C)NC(=O)C1CCC(Cn2c(=O)c3sccc3n(Cc3ccc(F)cc3)c2=O)CC1 (stereo unspecified) | -0.402%
26 | COc1ccc(-n2ncc(C(=O)NCc3ccco3)c2C2CCN(C(=O)OC(C)(C)C)CC2)cc1 | 2.64%
27 | COc1cc2ccccc2cc1C(=O)Nc1cccc(-c2nc3cc(C)c(C)cc3o2)c1 | 0.595%
28 | Cc1ccccc1CNC(=O)c1cnc2sc(N3CCC(C)CC3)nn2c1=O | -1.12%
29 | COC(=O)c1c(NC(=O)c2ccc(S(=O)(=O)N3CCC(C)CC3)cc2)sc2c1CCN(C)C2 | -26.1%
30 | Cc1cc(C)c(NC(=O)C2CCN(c3nc4ccccc4n4cccc34)CC2)c(C)c1 | -19.6%
31 | CCOC(=O)C1CCN(c2ncnc3c2nc2n3CCCCC2)CC1 | -10.8%
32 | Cc1cccc(C(=O)NCC(c2ccco2)S(=O)(=O)c2cccs2)c1 (stereo unspecified) | 26.1%
33 | Cc1cccc(NC(=O)c2ccc(-c3ccccc3)s2)c1 | 0.998%
34 | CCC(Oc1ccccc1)C(=O)Nc1nnc(S(=O)(=O)N(CC)CC)s1 (stereo unspecified) | -1.65%
35 | CCc1ccc(NC(=O)c2cnn(-c3ccccc3)c2-n2cccc2)cc1 | 8.65%
36 | O=C(CC1N=C2c3ccccc3N=C(SCc3ccc(F)cc3)N2C1=O)NCc1ccc2c(c1)OCO2 (stereo unspecified) | -25.8%
37 | Cc1ccc(NC(=O)CSc2nnc3ccc4ccccc4n23)cc1 | -17.9%
38 | CCc1ccc(NC(=O)c2ccc(-c3ccccc3)s2)cc1 | 2.41%
39 | O=C(NCCN1CCN(c2cccc(Cl)c2)CC1)Nc1ccccc1 | 19.7%
40 | COc1cc2c(C(=O)Nc3cc(OC)c(OC)c(OC)c3)cn(C)c(=O)c2cc1OC | 0.376%
41 | CC(C)c1ccc(S(=O)(=O)c2nnn3c2nc(N2CCCC2)c2sccc23)cc1 | -4.17%
42 | Cc1cccc(Cn2c(=O)n3nc(-c4ccccc4)nc3c3ccccc32)c1 | -5.82%
43 | CCCC(=O)Nc1nnc(S(=O)(=O)N(C)Cc2ccc(Cl)cc2)s1 | -10.7%
44 | COc1ccc(C2c3cc(OC)c(OC)cc3CC(=O)N2c2ccc(C)cc2)cc1 (stereo unspecified) | 10.2%
45 | Cn1c(=O)[nH]c2cc(-c3noc(-c4ccc(Br)cc4)n3)ccc21 | -0.332%
46 | Cc1cccc(-c2nn3c(=O)cc(CN4CCN(C(=O)/C=C/c5ccccc5)CC4)nc3s2)c1 | 5.59%
47 | O=C1Nc2ccccc2Oc2cc(Oc3ccccc3)ccc21 | 1.43%
48 | CCOC(=O)C1(c2csc(N)n2)COC(=O)C1 (stereo unspecified) | active: 43.7%

Row | Structure (SMILES) | inhibition
49 | Cc1ccc(C(=O)NCC(C)(C)O)cc1 | active: 37.5%
50 | COc1ccc(NC(=O)c2sc3nc4c(cc3c2N)CN(Cc2ccccc2)CC4)c(OC)c1 | 14%
51 | Cc1ccc(C)c(CN2C(=O)c3ccccc3S(=O)(=O)c3ccc(C(=O)OCC4CCCO4)cc32)c1 (stereo unspecified) | -16.1%
52 | COc1ccc(NC(=O)Cn2c(SCc3ccc(C)cc3)nc3cccnc32)cc1OC | -1.79%
53 | COc1ccc(-c2c(C#N)c(SCC(=O)Nc3ccccc3C)nc(C)c2C(=O)Nc2ccc(Cl)cc2)cc1 | -6.72%
54 | CN(c1ccccc1)S(=O)(=O)c1ccc(NC(=O)c2nc(S(C)(=O)=O)ncc2Cl)cc1 | 25.9%
55 | CCN1CCN(CCNC(=O)c2ccc3c(c2)N(Cc2ccc(F)cc2)C(=O)c2ccccc2S3=O)CC1 (stereo unspecified) | active: 55%
56 | COC(=O)c1c(NC(=O)CCCOc2cccc(C)c2)sc2c1CCC2 | -1.66%
57 | O=C(CSc1nc(C2CCCCC2)nc2ccccc12)NCc1ccco1 | active: 66.7%
58 | Cc1cc(C)n(-c2nnc(Nc3ccc(C)c(C)c3)c3ccccc23)n1 | 2.79%
59 | CCOC(=O)c1cc(S(=O)(=O)Nc2cc(OC)ccc2OC)[nH]n1 | -5.79%
60 | Cc1ccc(C(=O)NCC(c2ccc3c(c2)OCO3)N2CCOCC2)cc1C (stereo unspecified) | 26.6%
61 | COc1ccc(CNc2nc(-c3ccco3)nn2S(=O)(=O)c2ccc(Cl)cc2)cc1OC | -2.86%
62 | COc1ccc(Cl)cc1NC(=O)c1cc2c(=O)n3ccccc3nc2s1 | -19.2%
63 | O=C(CSc1cn(CC(=O)N2CCCC2)c2ccccc12)Nc1ccc(Cl)cc1 | -15.2%
64 | CCN(CC)CCn1c(NC(=O)c2ccc(C(F)(F)F)cc2)nc2ccccc21 | active: 88.3%
65 | CCC(CNc1cc(OC)cc2cccnc12)NC1CCCCC1 (stereo unspecified) | active: 47.1%
66 | Cc1cccc(NC(=O)Cn2cc(C(=O)C3CCCCC3)c3ccccc32)c1 | -1.54%
67 | COc1cccc(CNC(=O)c2cnc3sc(N4CCCC4)nn3c2=O)c1OC | -14.7%
68 | CCOC(=O)COc1ccc(C2C(C(=O)OC)=C(C)NC3=C2C(=O)c2ccccc23)cc1Cl (stereo unspecified) | 12.8%
69 | COc1cc2c(-c3cccc(Cl)c3)nc3c(c(C)nn3-c3ccccc3)c2cc1OC | 23.4%
70 | COc1ccc(Cn2c(CCC(=O)NCc3ccc(Cl)cc3)nc3cccnc32)cc1 | 9.9%
71 | CCOC(=O)CC(NC(=O)CCc1c(C)nc2c(-c3ccccc3)c(C)nn2c1C)c1ccc(OC(C)C)cc1 (stereo unspecified) | -8.86%
72 | CSc1ccc(CCNC(=O)NCc2noc3ccccc23)cc1 | -6.02%

Row | Structure (SMILES) | inhibition
73 | COc1cccc2sc(N(Cc3cccnc3)C(=O)c3ccc4c(c3)OCCO4)nc12 | 6%
74 | CC(NC(=O)C1CCN(S(=O)(=O)Cc2ccccc2)CC1)c1ccccc1 (stereo unspecified) | -12.6%
75 | COc1ccc(C2NC(=O)N(C)C3=C2C(=O)N(c2ccc(Br)cc2)C3)cc1 (stereo unspecified) | 9.63%
76 | CN(C)c1ccc(CNC(=O)C2CCN(c3nc4ccccc4[nH]3)CC2)cc1 | 7.26%
77 | CCCc1nn2c(=O)cc(COC(=O)c3ccc(NC(=O)COc4ccc(F)cc4)cc3)nc2s1 | 2.4%
78 | Cc1cc(S(=O)(=O)N2CCN(Cc3noc(CCC(=O)N4CCCCC4)n3)CC2)ccc1F | 5.97%
79 | COC(=O)c1cc2occc2n1Cc1nc(-c2ccccc2)oc1C | 6.61%
80 | CC(C)c1ccc(S(=O)(=O)N2CCC(n3c(C(F)(F)F)nc4cccnc43)CC2)cc1 | 9.94%
81 | COc1ccc(NC(=O)C2CCN(S(=O)(=O)c3cccc(-c4noc(C)n4)c3)CC2)cc1OC | -17.1%
82 | CCOC(=O)c1oc2ccc(S(=O)(=O)n3nc(-c4ccc(C)cc4)cc3N)cc2c1C | active: 34.6% and -7.8%
83 | CCOCCn1ccc2c(OCC(=O)Nc3ccc(C(N)=O)cc3)cccc2c1=O | -22.3%
84 | CC(C)c1ccc(CN(C(=O)c2cc3ccccc3oc2=O)C2CCS(=O)(=O)C2)cc1 (stereo unspecified) | 4.68%
85 | O=C(CN1C(=O)COc2ccccc21)NCCCN1CCc2ccccc2C1 | active: 57.7%
86 | N#Cc1ccc(-c2cccs2)nc1SCC(=O)Nc1cccc(C(F)(F)F)c1 | -1.86%
87 | CCCCCn1c(=O)[nH]c2cc(C(=O)Nc3ccc(F)c(F)c3)ccc2c1=O | 13.4%
88 | Cc1cc(SCC(=O)NCc2ccc(Cl)cc2)nc(=O)[nH]1 | -15.1%
89 | CCN(CC)CCOC(=O)c1ccc(NC(=O)c2cc3c(=O)n(CC)c4ccccc4c3s2)cc1 | 4.71%
90 | Cc1ccccc1C(=O)Nc1cccc(OCc2cc(=O)n3c(C)csc3n2)c1 | 11.6%
91 | COc1cc(C(=O)NCC(c2cccs2)N(C)C)cc(Cl)c1OC(C)C (stereo unspecified) | active: 34.5%
92 | CCN1CCN(Cc2c(O)ccc3c(C)c(-c4ccc(OC)cc4)c(=O)oc23)CC1 | 1.82%
93 | Cc1cccc(NC(=O)c2cc(S(=O)(=O)NCCc3ccccc3)ccc2F)c1C | 20.2%
94 | COc1ccccc1C1c2c(-c3ccc(Cl)cc3)n[nH]c2C(=O)N1c1ccc(C)cc1 (stereo unspecified) | 22.2%
95 | CCCNC(=O)CSc1nc2ccc(OCC)cc2s1 | active: 35.2%
96 | Cc1ccc(S(=O)(=O)N2CCC(C(=O)NCc3ccccc3Cl)CC2)cc1 | 7.74%
